The list shows a part of the results. Many values rest on one well or one pass, so single values are uncertain.
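Also: cells treated in 1,536-well plates, then fixed and DAPI-stained, with nuclei counted from automated high-throughput microscope images.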

For this assay, the system named is SkMel30. Put plainly: cell count relative to DMSO control; melanoma cells; higher = more viable cells. Conditions: library dose: standard library concentration; 72 h.
With `N#CC[C@H](C1CCCC1)n1cc(-c2ncnc3[nH]ccc23)cn1` [ruxolitinib] + O=C(O)c1ccc(-c2c[nH]c3ncc(-c4ccccc4)cc23)cc1C1CCCC1 [GSK650394] (first compound 5 µM, partner dose 0.8 µM), the cell count is 105%.

Molecule `CC[C@]1(O)C[C@H]2CN(CCc3c([nH]c4ccccc34)[C@@](C(=O)OC)(c3cc4c(cc3OC)N(C=O)[C@H]3[C@@](O)(C(=O)OC)[C@H](OC(C)=O)[C@]5(CC)C=CCN6CC[C@]43[C@@H]65)C2)C1` [vincristine] + OCCn1cc(-c2cnc3nnn(Cc4ccc5ncccc5c4)c3n2)cn1 [PF04217903] (first compound 0.0005 µM, partner dose 5 µM) showed a cell count of 97%.

`Cc1cc(Nc2cc(N3CCN(C)CC3)nc(Sc3ccc(NC(=O)C4CC4)cc3)n2)n[nH]1` [Tozasertib] + CC1(C)NC(=O)N(c2ccc([N+](=O)[O-])c(C(F)(F)F)c2)C1=O [nilutamide] (first compound 0.03 µM, partner dose 5 µM) returned a cell count of 104%.

`Cc1cc(Nc2cc(N3CCN(C)CC3)nc(Sc3ccc(NC(=O)C4CC4)cc3)n2)n[nH]1` [Tozasertib] + NC(=O)Nc1cc(-c2cccc(F)c2)sc1C(=O)N[C@H]1CCCNC1 [AZD7762] (first compound 0.03 µM, partner dose 0.1 µM) displayed a cell count of 74.5%.

In turn, `Cc1cc(Nc2cc(N3CCN(C)CC3)nc(Sc3ccc(NC(=O)C4CC4)cc3)n2)n[nH]1` [Tozasertib] + CN(NC(=O)CC(=O)NN(C)C(=S)c1ccccc1)C(=S)c1ccccc1 [STA4783] (first compound 0.03 µM, partner dose 0.03 µM) had a cell count of 102%.

The values above are taken from the supplement of paper PMC4604168 (melanoma cell lines).
